About 4,300 (8.3%) of roughly 52,000 compounds were called active. No stated cut-off is given here; in the data, active means survival mostly below about 52% (no sharp cut-off); inactive means mostly above about 56%. This is one part of the list.
The compounds below were run on DeltatarO mutant (assay: S. aureus survival, RN4220 and DeltatarO strains – OD600, teichoic acid synthesis inhibitors, primary screen (AID 463173)). Settings: S. aureus RN4220 wild type/DeltatarO growth, OD600, 18 h, active compounds read low, screened at 18.75 µg/mL (by protocol).
In the case of `COc1ccc(Cl)cc1C1CC(=O)Nc2cc3c(cc21)OCCO3` (configuration not stated), the survival is reported as inactive: 102%. For `CC1=C/C(=N/OC(=O)c2ccccc2)C=CC1=O`, the survival was inactive: 71%. With `Cc1ccc(CN2C(=O)c3ccccc3Sc3ccc(C(=O)NC4CCCC4)cc32)cc1` the survival was inactive: 95%. In the case of `CCNC(=O)c1c2c(nc3ccccc13)C(=O)N(C1CCCCC1)C2`, the survival is reported as inactive: 106%. In the case of `O=C(Cn1c(SCc2ccccc2F)nc2cccnc21)Nc1ccc(F)c(Cl)c1`, the survival is reported as inactive: 73%. In the case of `CCN(CC)CCn1c(-c2ccccc2)csc1=Nc1ccccc1`, the survival is reported as active: 42%. `Nc1nonc1C(=O)NCCNCc1cccc(Cl)c1Cl` was tested, and the survival was inactive: 65%. `CCCCN(CC)CCCNC(=O)C1CCCN(c2ncnc3c2nc2n3CCCCC2)C1` (configuration not stated) was tested, and the survival was inactive: 99%. In the case of `COc1ccc(NC(=O)Cn2c(=O)n(Cc3ccccc3Cl)c(=O)c3cc(OC)c(OC)cc32)cc1OC`, the survival is reported as inactive: 77%. With `Cc1ccc(OCCn2c(-c3ccc(Br)cc3)nc3ccccc3c2=O)cc1C` the survival was inactive: 68%. `O=C1CC(c2cccc(O)c2)c2cc3c(cc2N1)OCO3` (configuration not stated) was tested, and the survival was inactive: 87%. In the case of `COc1ccc(-c2onc(C)c2C)cc1S(=O)(=O)N1CCN(c2ccc(Cl)cc2)CC1`, the survival is reported as inactive: 64%. `O=C(CSc1nc2c([nH]c3ccccc32)c(=O)n1-c1ccccc1)N1CCOCC1` was tested, and the survival was inactive: 72%. In the case of `CC(C)OC(=O)c1c(NC(=O)COc2cccc(Br)c2)sc2c1CCCC2`, the survival is reported as inactive: 107%. In the case of `CC(CNC(=O)C1CCN(S(=O)(=O)c2ccc3c(ccn3C)c2)CC1)c1ccccc1` (configuration not stated), the survival is reported as inactive: 100%. For `O=C(CN1CCC(c2nc3ccccc3s2)CC1)N1CCCCC1`, the survival was inactive: 91%. `Cc1ccc(CCNC(=O)c2c(C)oc3nc(C)nc(N4CCOCC4)c23)cc1` was tested, and the survival was inactive: 106%. For `CCN(CCCNC(=O)c1cc(Nc2ccc(OC)cc2OC)nc2ccccc12)c1cccc(C)c1`, the survival was inactive: 86%. `Cn1cc(-c2cc3n(n2)CCC(=O)N3CC(=O)NCc2ccc(Cl)cc2)c2ccccc21` was tested, and the survival was inactive: 88%. In the case of `Cc1c(CC(=O)NCCc2ccccc2F)c(=O)oc2cc(O)c(Cl)cc12`, the survival is reported as inactive: 59%. For `O=C(COc1ccccc1[N+](=O)[O-])N1CCC(c2nc3ccccc3o2)CC1`, the survival was inactive: 79%. `CC(C)S(=O)(=O)c1oc(-c2cccs2)nc1S(=O)(=O)c1ccc(F)cc1` was tested, and the survival was active: 9%. In the case of `CC(C)(C)NC(=O)CSc1nncn1NCc1ccccc1`, the survival is reported as inactive: 75%. For `O=C(O)c1ccc(S(=O)(=O)c2ccc3c(c2)C(=O)N(C2CCCCC2)C3=O)cc1`, the survival was inactive: 97%. In the case of `Cc1ccc(NC(=O)c2c(C)oc3ccc(O)c(CN4CCCCCC4)c23)cc1`, the survival is reported as inactive: 95%. In the case of `COC(=O)c1ccc(NC(=O)Cn2c(=O)nc(-c3ccccc3)c3ccccc32)cc1`, the survival is reported as inactive: 80%. For `CCOC(=O)c1ccc(NC(=O)Cn2ncc3c(C)n(Cc4ccccc4F)c(C)c3c2=O)cc1`, the survival was inactive: 66%. In the case of `CC(C)c1ccc(NC(=O)Nc2csc3c2CCCC3)cc1`, the survival is reported as active: 13%. For `Cc1ccc2c(=O)cc(C(=O)Nc3c(C(=O)Nc4cccc(Cl)c4)oc4ccccc34)oc2c1`, the survival was active: 36%. In the case of `COc1ccc(NC(=O)c2c(NCc3cccs3)sc3c2CCCC3)cc1`, the survival is reported as inactive: 95%. For `CCCCN(C)CC(O)Cn1cc(/C=C/C(=O)c2ccc(C)cc2)c2ccccc21` (configuration not stated), the survival was active: 6%. `CCc1ccc2oc(-c3ccc(N)cc3)nc2c1` was tested, and the survival was active: 34%. For `Cc1ccc(S(=O)(=O)C(CNC(=O)Cc2ccc(Cl)cc2)c2cccs2)cc1` (configuration not stated), the survival was inactive: 85%. In the case of `CC(C)c1c(O)nc(SCCN2CCOCC2)[nH]c1=O`, the survival is reported as inactive: 92%. In the case of `Cc1cccc(Cn2c(=O)n(Cc3ccc4c(c3)OCO4)c(=O)c3oc4ccccc4c32)c1`, the survival is reported as inactive: 77%. `CCc1ccccc1NC(=O)c1cc2nc(-c3ccc(OC)c(OC)c3)cc(C(F)(F)F)n2n1` was tested, and the survival was active: 52%. For `CCOc1ccc(CNC(=O)c2ccc3c(c2)nnn3C2CCCC2)cc1`, the survival was inactive: 88%. `COc1ccccc1N1CCN(C(=O)Nc2cn(CC(C)C)c(=O)c3ccccc23)CC1` was tested, and the survival was inactive: 76%. `CCOCCCNC(=O)c1c(NC(=O)c2cc(=O)c3ccccc3o2)sc2c1CCC2` was tested, and the survival was inactive: 48%. `O=c1oc2c(CN3CCCC3)c(O)ccc2cc1-c1ccccc1` was tested, and the survival was inactive: 125%. For `CC(C)C(=O)Nc1cccc(C(=O)Nc2nnc(CC(C)(C)C)s2)c1`, the survival was inactive: 67%. `CCOC(=O)c1c(C)oc2ncnc(Nc3cc(Cl)ccc3OC)c12` was tested, and the survival was inactive: 70%. `Cc1ccc2nc(COc3ccccc3NC(=O)COc3ccccc3Cl)cc(=O)n2c1` was tested, and the survival was inactive: 102%. For `Cc1ccc(CNC(=O)C2CCN(S(=O)(=O)c3c(C)noc3/C=C/c3c(C)cc(C)cc3C)CC2)cc1`, the survival was inactive: 75%. In the case of `CSc1ncc(C(=O)NCc2ccc(C)cc2)c(-c2ccccc2)n1`, the survival is reported as active: 0%. `O=C(c1ccc(Br)s1)N(Cc1cccnc1)c1nc2ccc(F)cc2s1` was tested, and the survival was inactive: 83%. `CCOc1ccccc1NC(=O)CN1C(=O)COc2ccc(S(=O)(=O)N3CCCCC3)cc21` was tested, and the survival was inactive: 91%. For `Cc1ccc2c(c1)c1c(n2CC(O)CN2CCCCC2)C(=O)CCC1` (configuration not stated), the survival was inactive: 78%. For `Cc1ccc(N2C(=O)CSC23C(=O)N(CC(=O)NC2CCCCC2)c2ccccc23)cc1C` (configuration not stated), the survival was inactive: 94%. For `Cn1cc(C(c2ccccc2)c2ccc(Cl)s2)c2ccccc21` (configuration not stated), the survival was inactive: 102%. With `CCOC(=O)Cn1c(=O)n(-c2ccccc2OC)c2nc(-c3ccccc3F)nc(C(N)=O)c21` the survival was inactive: 72%. `CCc1ccc(-c2cn3c(n2)SCC3)cc1` was tested, and the survival was inactive: 98%. With `Brc1ccc(NCc2ccco2)cc1` the survival was inactive: 96%. For `CCc1nn(CC(=O)NCc2ccc(OC)c(OC)c2)c(=O)c2cc3sc(C)cc3n12`, the survival was inactive: 71%. `O=C1CSC(=O)N1Cc1cc2c(cc1Cl)OCO2` was tested, and the survival was inactive: 70%. In the case of `CCOC(=O)c1c(NC(=O)c2cc3nc(-c4ccccc4)cc(C(F)(F)F)n3n2)sc2c1CCC(C)C2` (configuration not stated), the survival is reported as inactive: 55%. For `CCOc1ccc(C(=O)Nc2ccccc2OCc2cc(=O)n3ccccc3n2)cc1`, the survival was inactive: 119%. With `Cc1cc(C(=O)Nc2cccc(F)c2)c2c(C)nn(-c3cccc(Cl)c3C)c2n1` the survival was inactive: 87%. In the case of `Cn1c(CN2CCOCC2)nnc1SCC(N)=O`, the survival is reported as inactive: 95%. For `CCc1c(C)c2ccc(O)c(CN3CCN(c4ccc(OC)cc4)CC3)c2oc1=O`, the survival was inactive: 55%. In the case of `CC1CCC(Nc2nnnn2-c2ccccc2)CC1` (configuration not stated), the survival is reported as inactive: 87%. `Cc1ccccc1CNC(=O)c1ccc(CSc2nc3cccnc3n2Cc2ccccc2)cc1` was tested, and the survival was inactive: 55%. With `O=C(CN1CCC(C(=O)c2ccc(F)cc2)CC1)Nc1ccccc1` the survival was inactive: 83%. `COC(=O)c1ccc(Cn2c(SCc3ccccc3)nc3ccncc32)cc1` was tested, and the survival was active: 45%. In the case of `Cc1ccc(-c2nc(CS(=O)(=O)CC(=O)NCc3ccc(Cl)cc3)c(C)o2)cc1`, the survival is reported as inactive: 105%. For `CCc1ccc(-n2c(SCc3ccccc3C)nc3[nH]ncc3c2=O)cc1`, the survival was inactive: 62%. `CCc1ccc(-c2nn(CC(=O)NCc3ccccc3)c3c2cnc2ccc(C)cc23)cc1` was tested, and the survival was inactive: 69%. `CC(C)c1ccc(NC(=O)CCS(=O)(=O)c2cccc3nonc23)cc1` was tested, and the survival was inactive: 87%. With `CCCN(C(=O)COc1cc(=O)n(CC)c2ccccc12)c1ccc(C(C)C)cc1` the survival was active: -22%. For `CCc1ccc(-n2nc(C)c3c(C(=O)Nc4cc(C)c(Cl)cc4OC)cc(C)nc32)cc1`, the survival was inactive: 85%. For `CCOc1ccccc1NC(=O)Cn1c(=O)n(-c2ccc(F)cc2)c(=O)c2c3c(sc21)CN(C(C)=O)CC3`, the survival was inactive: 122%. For `Cc1ccc(CCNC(=O)c2ccc(CNS(=O)(=O)c3ccccc3)cc2)cc1`, the survival was inactive: 80%. For `O=C(CN1CCSc2ccccc21)N1CCCCC1`, the survival was inactive: 78%. `Cc1ccc2cc3c(N)c(-c4nnc(-c5ccccc5)o4)sc3nc2c1` was tested, and the survival was inactive: 94%. `O=C(Nc1ccc(C(F)(F)F)cc1)C1CCN(c2cnccn2)CC1` was tested, and the survival was inactive: 73%. With `Cc1ccc(CCNC(=O)c2cc(C)nc3c2c(C)nn3-c2ccc(C)cc2)cc1` the survival was active: 25%. In the case of `COc1cccc(Cn2c(SCC(=O)N(C)c3ccccc3)nc3ccccc32)c1`, the survival is reported as active: -4%. In the case of `COc1cccc2cc(-c3csc(-c4ccc(Cl)cc4)n3)c(=O)oc12`, the survival is reported as inactive: 99%. For `Cc1cc(C)c(C#N)c(S(C)(=O)=O)n1`, the survival was inactive: 106%. `CCOc1ccccc1NC(=O)c1c(NCc2cccs2)sc2c1CCCCC2` was tested, and the survival was inactive: 71%. For `Cc1cc(C)nc(SCCC(=O)Nc2ccccc2)n1`, the survival was inactive: 96%. In the case of `CCOc1ccc(NC(=O)c2c(NC(=O)c3ccccc3F)sc3c2CCC3)cc1`, the survival is reported as inactive: 155%. In the case of `CC(=O)Nc1ccc(NC(=O)c2cc3sccc3n2Cc2ccc(Cl)cc2)cc1`, the survival is reported as inactive: 97%. In the case of `CCOC(=O)c1c(NC(=O)/C(C#N)=C/c2ccccc2)sc2c1CCC2`, the survival is reported as inactive: 52%. In the case of `COc1cc(NC(=O)Cn2cnc3c2c(=O)n(C)c(=O)n3C)c(OC)cc1Cl`, the survival is reported as inactive: 65%. With `Cc1cc(C)cc(NC(=O)Nc2ccccc2OCc2cc(=O)n3ccccc3n2)c1` the survival was inactive: 84%. In the case of `Cc1ccc(-c2nnc(Nc3ccc(OCC(N)=O)cc3)c3ccccc23)cc1S(=O)(=O)N(C)C`, the survival is reported as inactive: 88%. In the case of `CC(C)(C)c1ccc(C2=NC(C)(C)N(CC(=O)Nc3ccc(F)c(F)c3)C2=O)cc1`, the survival is reported as inactive: 88%. For `CCc1c(C)sc2c1CCN(C(=O)Nc1cc(Cl)c(OC)cc1OC)C2c1ccccc1` (configuration not stated), the survival was inactive: 63%. In the case of `Cc1ccc(C)c2nc(SCC(=O)OC(C)C)c(C#N)cc12`, the survival is reported as inactive: 92%. For `COc1cccc2c1Oc1ncccc1N(C(=O)CCC(=O)NC(C)C)C2`, the survival was inactive: 89%. In the case of `C#CCn1cnc2c(cnn2-c2ccc(F)cc2)c1=O`, the survival is reported as inactive: 98%.
